Assay results taken from PubChem BioAssay AID624417 (National Center for Advancing Translational Sciences (NCATS), 2012).
About 6,400 (1.6%) of roughly 410,000 compounds were called active. Inconclusive results, whose numbers are uncertain, are shown with a selection of clear calls. Calls follow the shape of the dose curve; as a rule, active = well fitted inhibition curve with a large enough effect; inconclusive = small, poorly fitted or top-dose-only effect; inactive = no such curve, though single readings can be large or run the other way. Potencies of inconclusive entries are left out as doubtful fits.

biological target: Glucagon-like peptide 1 receptor (Homo sapiens) (UniProt P43220); assay: qHTS of GLP-1 Receptor Inverse Agonists (Inhibition Mode); conditions: HEK293 GLP-1R CRE-luciferase, luminescence, 24 h, GLP-1R form is constitutively active; series mostly up to 38.3 µM; also: nearly all actives have a fitted effect of over 55% in size
How it was run: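 Using stably transfected HEK293 (constitutively active GLP-1R, cAMP-luciferase reporter), compounds were incubated 24 hr and luciferase measured by luminescence.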
Potency is read from the fitted curve at half-maximal effect; tags tell the direction and shape of the fitted curve.

Chain of UniProt P43220 (P43220 whole entry, looked up): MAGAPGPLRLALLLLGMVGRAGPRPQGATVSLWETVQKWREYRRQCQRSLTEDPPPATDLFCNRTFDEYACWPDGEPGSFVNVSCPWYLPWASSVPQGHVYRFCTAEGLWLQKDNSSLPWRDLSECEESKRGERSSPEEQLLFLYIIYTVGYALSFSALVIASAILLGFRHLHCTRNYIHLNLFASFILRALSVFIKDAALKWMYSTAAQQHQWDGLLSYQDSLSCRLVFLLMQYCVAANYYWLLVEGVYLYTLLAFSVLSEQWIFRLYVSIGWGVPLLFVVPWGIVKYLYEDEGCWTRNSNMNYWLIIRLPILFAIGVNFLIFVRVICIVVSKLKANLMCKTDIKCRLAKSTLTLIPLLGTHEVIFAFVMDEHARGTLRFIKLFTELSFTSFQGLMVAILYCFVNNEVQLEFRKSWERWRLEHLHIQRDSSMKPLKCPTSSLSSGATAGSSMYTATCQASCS

Q: For `CCOC(=O)N1CCC(NC(=O)c2ccc3c(c2)ncn3C2CCCC2)CC1`, which Potency is on record?
A: inactive

Q: For `Cn1c2ccc(F)cc2c2ncn(Cc3ccco3)c(=O)c21`, which Potency is on record?
A: inactive

Q: Which Potency does the source give for `Cc1[nH]n(C(N)=S)c(=O)c1N=Nc1ccc([N+](=O)[O-])cc1Cl` here?
A: inconclusive [inhibitor, full curve, poor fit]

Q: Which Potency does the source give for `COc1cccc(-c2noc(Cn3nc(C)c([N+](=O)[O-])c3C)n2)c1` here?
A: inconclusive [inhibitor, single point]

Q: For `CCCNC(=S)N(Cc1ccccc1)Cc1nc2ccccc2c(=O)[nH]1`, which Potency is on record?
A: inconclusive [inhibitor, single point]

Q: Which Potency does the source give for `O=C1N/C(=N\N=C\c2ccccn2)SC1Cc1cccc(SC(F)F)c1` (stereo unspecified) here?
A: inconclusive [inhibitor, full curve, poor fit]

Q: With `Cc1c(O)ccc(C(=O)CN2CCN(c3ccc(F)cc3)CC2)c1O` as the molecule, how does the Potency read?
A: inconclusive [inhibitor, single point]

Q: Which Potency does the source give for `Clc1ccc(-c2n[nH]c3c2CCC3)c(Cl)c1` here?
A: inconclusive [inhibitor, single point]

Q: For `CCCCNC(=O)C1CCC(CNS(=O)(=O)c2cccc3nsnc23)CC1` (stereo unspecified), which Potency is on record?
A: inactive

Q: Which Potency does the source give for `CCOC(=O)COc1ccccc1/C=N\NC(=O)c1cc2c(ccc3ccccc32)o1` here?
A: inconclusive [inhibitor, single point]

Q: Which Potency does the source give for `CC1(NC(=O)c2cc(S(=O)(=O)N3CCCCC3)ccc2Cl)CCS(=O)(=O)C1` (stereo unspecified) here?
A: inconclusive [inhibitor, single point]

Q: With `Cc1nn(Cc2ccc(Br)cc2)c(C)c1NC(=O)c1nn(C)cc1Cl` as the molecule, how does the Potency read?
A: inactive

Q: For `COc1cccc(C2=CC(=O)C(C(C)(C)C)N2C(C)(C)C)c1` (stereo unspecified), which Potency is on record?
A: inconclusive [inhibitor, single point]

Q: `CC(Oc1ccccc1F)C(=O)N1CCC(c2nc3ccccc3o2)CC1` (stereo unspecified) was tested. Which Potency did it give?
A: inactive

Q: With `CCOC(=O)c1c(NC(=O)c2cc(-c3ccc(Br)cc3)on2)sc(C)c1C` as the molecule, how does the Potency read?
A: inactive

Q: Which Potency does the source give for `COc1ccc(CC2(CO)CCN(Cc3ccc(OC(F)(F)F)cc3)CC2)cc1` here?
A: inconclusive [inhibitor, partial curve, poor fit]

Q: `O=C(Nc1ccc2cn[nH]c2c1)c1c(Cl)cccc1Cl` was tested. Which Potency did it give?
A: inactive

Q: Which Potency does the source give for `COc1ccc(-c2csc(Nc3ccccc3)n2)cc1` here?
A: inconclusive [inhibitor, single point]

Q: How did the Potency turn out when `COc1ccccc1/C=C/C=N/n1c(C2CCCCC2)n[nH]c1=S` was run?
A: inconclusive [inhibitor, single point]

Q: Which Potency does the source give for `Cc1sc2ncnc(N3CCC(C)CC3)c2c1C` here?
A: inconclusive [inhibitor, single point]

Q: `CCCN1CCN(CCCNC(=O)c2ccc3c(Cl)c4c(nc3c2)CCCC4)CC1` was tested. Which Potency did it give?
A: active: 5.01 µM

Q: For `Cc1nc2cc(Cl)ccc2n1-c1ccccc1`, which Potency is on record?
A: inconclusive [inhibitor, single point]

Q: `CCOc1ccc(C(=O)Nc2cc(-c3nc4ccccc4[nH]3)ccc2Cl)cc1[N+](=O)[O-]` was tested. Which Potency did it give?
A: inconclusive [inhibitor, single point]

Q: `Cc1ccc2oc(=O)n(CCCOc3ccccc3C)c2c1` was tested. Which Potency did it give?
A: inconclusive [inhibitor, single point]

Q: `CC(=O)c1cccc(NC(=O)c2ccc(N(Cc3ccccc3C)S(C)(=O)=O)cc2)c1` was tested. Which Potency did it give?
A: inconclusive [inhibitor, single point]

Q: How did the Potency turn out when `CC1=CC(C)(C)N2C(=O)C3(SCC(=O)N3c3ccc(F)cc3)c3cc(C)cc1c32` (stereo unspecified) was run?
A: inactive

Q: `CN(CCOc1ccccc1)S(=O)(=O)c1ccc2oc3ccccc3c2c1` was tested. Which Potency did it give?
A: inconclusive [inhibitor, single point]

Q: `COc1ccccc1NC(=O)C1=C(C)Nc2nc(SCc3ccccc3)nn2C1c1cccs1` (stereo unspecified) was tested. Which Potency did it give?
A: inactive

Q: With `N#Cc1cccc(NC(=O)c2cc(C3CCCCN3C(=O)c3ccccc3)on2)c1` (stereo unspecified) as the molecule, how does the Potency read?
A: inconclusive [inhibitor, partial curve, poor fit]

Q: With `CC(C)c1ccc(OCC(=O)N2CCCCCC2)c(Br)c1` as the molecule, how does the Potency read?
A: inconclusive [inhibitor, partial curve, poor fit]

Q: How did the Potency turn out when `O=C(ONC1=NCCCCC1)c1c(F)cccc1F` was run?
A: inconclusive [inhibitor, single point]

Q: Which Potency does the source give for `O=C(NCCc1ccc(Cl)cc1)c1ccc2c(c1)N(Cc1ccccc1)C(=O)CS2` here?
A: inconclusive [inhibitor, partial curve, poor fit]

Q: How did the Potency turn out when `COC(=O)CC1COc2ccccc2N1C(=O)c1ccc(Cl)cc1` (stereo unspecified) was run?
A: inconclusive [inhibitor, full curve, poor fit]

Q: `Cc1ccc(NC(=O)CN2C(=O)c3ccccc3Sc3ncccc32)c(C)c1` was tested. Which Potency did it give?
A: inactive

Q: Which Potency does the source give for `COC(=O)[C@@]12C[C@@H](CC(=O)NCc3ccccc3)C(=O)N(Cc3ccccc3)C1=CCC(C)(C)C2` here?
A: active: 11.2 µM

Q: Which Potency does the source give for `O=c1[nH]cc(C=NNc2ccccc2)c(=O)[nH]1` here?
A: inconclusive [inhibitor, partial curve, poor fit]

Q: How did the Potency turn out when `COc1ccc2c(c1)C1OCCC1C(c1ccco1)N2` (stereo unspecified) was run?
A: inconclusive [inhibitor, single point]

Q: How did the Potency turn out when `O=C(CCCc1cccs1)Nc1nc2c(s1)CCCC2` was run?
A: inconclusive [inhibitor, single point]

Q: How did the Potency turn out when `O=C1CCC(OCc2ccccc2)CCN1[C@H](CSc1ccccc1)Cc1ccccc1` (stereo partly specified) was run?
A: inconclusive [inhibitor, partial curve, poor fit]

Q: For `Cc1cccc(OCCSc2nc3ccc(NC(=O)c4cccs4)cc3s2)c1`, which Potency is on record?
A: inconclusive [inhibitor, full curve, poor fit]

Q: Which Potency does the source give for `Cc1ccc(C)c(NC(=O)CN(C)C(=O)c2ccccc2OCc2ccc(Cl)cc2)c1` here?
A: inconclusive [inhibitor, single point]

Q: `S=c1[nH]nc(C2CCCCC2)n1/N=C/c1ccccn1` was tested. Which Potency did it give?
A: inactive

Q: `Cc1cccc(Cn2cc(S(=O)(=O)c3ccc(Cl)cc3)c(=O)c3cc4c(cc32)OCO4)c1` was tested. Which Potency did it give?
A: inactive

Q: `CC(C)COc1cccc(C(=O)N(C)CC(=O)Nc2cccc3ccccc23)c1` was tested. Which Potency did it give?
A: inconclusive [inhibitor, single point]

Q: For `CCCCCSc1nc(N2CCOCC2)c2c(c1C#N)CC(C)(C)OC2`, which Potency is on record?
A: inconclusive [inhibitor, partial curve, poor fit]

Q: Which Potency does the source give for `COc1ccc(CCNC(=O)C2CC(c3c(Cl)cccc3Cl)=NO2)cc1` (stereo unspecified) here?
A: inconclusive [inhibitor, single point]

Q: For `CN(C)CCCNc1oc(-c2ccc(Cl)cc2)nc1S(=O)(=O)c1ccccc1`, which Potency is on record?
A: inactive

Q: How did the Potency turn out when `O=C(Cc1ccccc1)NC(NC(=S)Nc1cc(Cl)ccc1Cl)C(Cl)(Cl)Cl` (stereo unspecified) was run?
A: inconclusive [inhibitor, full curve, poor fit]

Q: `O=C1/C(=C/c2cccnc2)CCC/C1=C\c1cccnc1` was tested. Which Potency did it give?
A: inconclusive [inhibitor, partial curve, poor fit]

Q: With `CCn1c2ccccc2c2cc(NC(=O)C(C)Oc3ccccc3)ccc21` (stereo unspecified) as the molecule, how does the Potency read?
A: inconclusive [inhibitor, single point]

Q: For `CN(Cc1ccc(F)cc1)C(=O)c1cccc(OCc2ccccc2)c1`, which Potency is on record?
A: inconclusive [inhibitor, single point]

Q: `O=C(CSCc1nc2ccccc2[nH]1)N1CCN(c2ccc(F)cc2)CC1` was tested. Which Potency did it give?
A: inconclusive [inhibitor, full curve, poor fit]

Q: Which Potency does the source give for `COc1cccc(/C=N/NC(=O)c2ccc(=O)n(C)c2)c1O` here?
A: inconclusive [inhibitor, single point]

Q: With `CCCCC(=O)Nc1cc2nn(-c3ccc(OCC)cc3)nc2cc1C` as the molecule, how does the Potency read?
A: inactive

Q: With `CC(=O)Oc1ccc(-c2ccc(C(=O)OCC(=O)N(C)CC(=O)Nc3ccccc3Cl)cc2)cc1` as the molecule, how does the Potency read?
A: inconclusive [inhibitor, single point]

Q: For `CN(C)S(=O)(=O)N1CCC(Oc2cccc(C(=O)NC3CCCCC3)c2)CC1`, which Potency is on record?
A: inactive

Q: Which Potency does the source give for `Cc1cc(=O)[nH]c(N/N=C/c2cc(C)n(-c3ccccc3)c2C)n1` here?
A: inconclusive [inhibitor, partial curve, poor fit]

Q: For `O=C(Nc1ccn(CCCNCC(c2ccccc2)c2ccccc2)c(=O)n1)OCc1ccccc1`, which Potency is on record?
A: inconclusive [inhibitor, partial curve, poor fit]

Q: Which Potency does the source give for `COc1ccc(Cl)cc1C(=O)OCC(=O)NC1CCCC(C)C1C` (stereo unspecified) here?
A: inconclusive [inhibitor, single point]

Q: For `CC1=NN(C(=S)Nc2ccccc2)C(c2ccccc2)C1` (stereo unspecified), which Potency is on record?
A: inconclusive [inhibitor, single point]

Q: For `COC(=O)c1ccc2c(=O)[nH]c(COC(=O)c3c(-c4ccccc4Cl)noc3C)nc2c1`, which Potency is on record?
A: inconclusive [inhibitor, single point]

Q: With `O=C(Nc1ccc(F)cc1)c1cc2c(s1)CCCC2` as the molecule, how does the Potency read?
A: inconclusive [inhibitor, single point]

Q: For `CCOC(=O)N1CCN(c2nc3ccccc3nc2C(C#N)S(=O)(=O)c2ccc(C)cc2)CC1` (stereo unspecified), which Potency is on record?
A: inactive

Q: `CCCc1nc2ccccc2c(C(=O)OCC(=O)NCc2ccco2)c1CC` was tested. Which Potency did it give?
A: inconclusive [inhibitor, single point]

Q: With `Cc1ccc(S(=O)(=O)N2CCOCC2)cc1C(=O)OCC(=O)NC1CCCC(C)C1C` (stereo unspecified) as the molecule, how does the Potency read?
A: inconclusive [inhibitor, partial curve, poor fit]

Q: `CCCN(Cc1cc2ccc(C)cc2[nH]c1=O)S(=O)(=O)c1ccccc1` was tested. Which Potency did it give?
A: inconclusive [inhibitor, partial curve]
